Reference: PubChem BioAssay AID2147 (National Center for Advancing Translational Sciences (NCATS), 2009)
The campaign covered roughly 230,000 compounds. About 3,600 (1.6%) were called active. Inconclusive results, whose numbers are uncertain, are shown with a selection of clear calls. Calls come from the whole dose curve; as a rule, active = well fitted inhibition curve with a large enough effect (not every such curve was filed as active); inconclusive = small, poorly fitted or top-dose-only effect, or another doubt; inactive = no such curve, though single readings can be large or run the other way. Potencies beside an inconclusive call are fits to weak or partial responses and may not hold up.

These compounds were tested against Lysine-specific demethylase 4E (Homo sapiens) (UniProt B2RXH2) (assay: qHTS Assay for Inhibitors of Human Jumonji Domain Containing 2E (JMJD2E)). Settings: JMJD2E catalytic domain, FDH-coupled NADH fluorescence (FDH is formaldehyde dehydrogenase); series mostly up to 57.1 µM; activity change, negative = inhibition: at the top concentration.
UniProt B2RXH2, sequence (B2RXH2 whole entry, looked up, the tested form may be a part): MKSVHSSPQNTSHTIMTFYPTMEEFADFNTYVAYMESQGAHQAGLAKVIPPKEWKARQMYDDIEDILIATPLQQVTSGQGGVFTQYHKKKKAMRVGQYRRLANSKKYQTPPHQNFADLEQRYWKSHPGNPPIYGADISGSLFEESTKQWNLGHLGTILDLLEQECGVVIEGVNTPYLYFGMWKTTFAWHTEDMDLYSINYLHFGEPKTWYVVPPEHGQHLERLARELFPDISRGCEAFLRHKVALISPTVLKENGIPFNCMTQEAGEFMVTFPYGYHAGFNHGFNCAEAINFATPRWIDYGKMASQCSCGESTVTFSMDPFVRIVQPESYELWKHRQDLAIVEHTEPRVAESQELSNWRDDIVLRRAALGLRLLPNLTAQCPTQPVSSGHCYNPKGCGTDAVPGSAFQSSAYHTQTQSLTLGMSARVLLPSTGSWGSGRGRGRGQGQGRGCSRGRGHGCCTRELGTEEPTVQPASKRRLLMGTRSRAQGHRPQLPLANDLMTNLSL
Note: nearly all actives have a fitted effect of over 50% in size.
Potency is the fitted concentration of half-maximal effect; tags give direction and shape of the fitted curve.
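Throughout, for activity change, negative = inhibition: 0% = wells with enzyme and -100% = buffer wells without enzyme.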

Row | Compound | Potency | activity change, negative = inhibition
1 | CCOC(=O)c1cc(C(=O)c2cc(F)ccc2O)coc1=N | inconclusive: 35.5 µM [inhibitor, single point] | –
2 | O=C(CCn1nc(-c2ccc(Cl)cc2)ccc1=O)N1CCOCC1 | inconclusive: 28.2 µM [inhibitor, single point] | –
3 | Cc1cc(C)n(-c2nc(-n3nc(C)cc3C)c3c4c(sc3n2)COC(C)(C)C4)n1 | inconclusive: 25.1 µM [inhibitor, partial curve] | –
4 | O=C1/C(=C/c2ccc(F)cc2)SC(=S)N1Nc1ncc(C(F)(F)F)cc1Cl | – | inactive: -6.67%
5 | CCc1ccc(NC(=O)c2cnn3ccccc23)cc1 | – | inactive: 7.04%
6 | CN1C(=O)/C(=C/c2ccc(O)c([N+](=O)[O-])c2)N(C)C1=S | – | inactive: 3.83%
7 | COc1ccc(-c2csc(Nc3ccc(S(=O)(=O)Nc4cc(C)on4)cc3)n2)cc1C | inconclusive: 35.5 µM [inhibitor, partial curve] | –
8 | Cc1cccc(NC(=O)CN2C(=O)N/C(=C\c3cccn3-c3cccc(C(=O)O)c3)C2=O)c1 | inconclusive: 25.1 µM [inhibitor, single point] | –
9 | CCc1cc(=O)oc2cc(OC(C)C(=O)O)c(Cl)cc12 (configuration not stated) | inconclusive: 28.2 µM [inhibitor, partial curve] | –
10 | COC(=O)c1c(NC(C)=O)sc2c1CCCC2 | inconclusive: 39.8 µM [inhibitor, single point] | –
11 | O=C(NCCN1CCOCC1)c1ccc2c(c1)N(Cc1ccccc1)CCS2 | inconclusive: 28.2 µM [inhibitor, partial curve] | –
12 | CCc1ccc(OCCNC(=O)c2ccccc2SCc2ccccc2)cc1 | inconclusive: 35.5 µM [inhibitor, single point] | –
13 | O=C(CCc1ccccn1)NC1CCCc2c1cnn2-c1ccc(F)cc1F (configuration not stated) | inconclusive: 39.8 µM [inhibitor, single point] | –
14 | Cc1ccc(O)c(-c2cc(C(=O)Nc3cccnc3)[nH]n2)c1 | inconclusive: 39.8 µM [inhibitor, single point] | –
15 | Cc1c(C#N)c(O)n(C)c(=O)c1N=Nc1ccc(S(N)(=O)=O)cc1 | – | inactive: -2.77%
16 | CCOc1ccc(C(=O)NN2C(=O)C3C4C=CC(O4)C3C2=O)cc1 (configuration not stated) | – | inactive: 5%
17 | CCc1ccc(NC(=O)COC(=O)CN2C(=O)COc3ccccc32)cc1 | – | inactive: -4.99%
18 | CC1(c2ccc(OCC#N)cc2)C=C(c2ccc(OCC#N)cc2)n2nc(C(F)(F)F)nc2N1 (configuration not stated) | – | inactive: -21.2%
19 | COC(=O)c1c(N)n(-c2ccc(NC(C)=O)cc2)c2nc3ccccc3nc12 | inconclusive: 31.6 µM [inhibitor, partial curve] | –
20 | Cc1cc(C)cc(NC(=O)N2CCCC2C(=O)Nc2ccc(-n3cnnn3)c(C)c2)c1 (configuration not stated) | – | inactive: 5.49%
21 | O=C(O)CCN1Cc2ccccc2C1=O | inconclusive: 25.1 µM [inhibitor, single point] | –
22 | Cc1nn(C)cc1S(=O)(=O)N1CCN(Cc2ccc(F)cc2Cl)CC1 | – | inactive: -0.555%
23 | CCCc1oc(C(=O)O)cc1CN1CCOCC1 | inconclusive: 31.6 µM [inhibitor, single point] | –
24 | CCOC(=O)C(C)n1nc(/C=C/c2ccccc2)ccc1=O (configuration not stated) | inconclusive: 25.1 µM [inhibitor, partial curve] | –

Row | Compound | Potency | activity change, negative = inhibition
25 | COc1ccc(/C=N/NC2=NCCCCC2)cc1 | – | inactive: -1.35%
26 | Cc1ccc(C(=O)COC(=O)c2cc(=O)[nH]c3ccccc23)cc1C | inconclusive: 39.8 µM [inhibitor, single point] | –
27 | N#CC1=C(N)C2=C(N3CCCCC3)CCCC2C1(C#N)C#N (configuration not stated) | inconclusive: 28.2 µM [inhibitor, single point] | –
28 | COc1ccc(OCCN2C(=O)NC(C)(c3ccc(C)cc3)C2=O)cc1 (configuration not stated) | – | inactive: 0.607%
29 | COc1ccc(N2CCN(C(=O)c3ccccc3)CC2)c([N+](=O)[O-])c1 | – | inactive: -0.638%
30 | Cc1nn(C)c(C(=O)NNC(=S)NCc2ccco2)c1Br | – | inactive: -0.213%
31 | CCOC(=O)c1cc(-c2ccc(C)cc2)n(CCC(=O)NCCCOC)c1C | – | inactive: -3.45%
32 | O=C1c2ccccc2NC(c2cn[nH]c2-c2ccccc2)N1O (configuration not stated) | inconclusive: 39.8 µM [inhibitor, single point] | –
33 | COc1c[nH]n(C2CCCCC2)c(=O)c1=O | inconclusive: 39.8 µM [inhibitor, single point] | –
34 | CCOC(=O)C1=C(C)NC2=C(C(=O)C(C(=O)OCC)C(c3cccc(OC)c3)C2)C1c1ccccn1 (configuration not stated) | inconclusive: 28.2 µM [inhibitor, partial curve] | –
35 | Cc1ccc(-c2nc(SCC(N)=O)c(C#N)c3c2CCCC3)cc1 | inconclusive: 35.5 µM [inhibitor, single point] | –
36 | CC1=C(C(=O)N2CCOCC2)C(c2ccccc2F)C2=C(CCCC2=O)N1 (configuration not stated) | inconclusive: 28.2 µM [inhibitor, partial curve] | –
37 | O=C(/C=C/c1ccc(S(=O)(=O)N2CCOCC2)cc1)NC(=S)Nc1ccc(N2CCOCC2)cc1 | – | inactive: 5.38%
38 | c1cncc(-c2noc(-c3cccc4ccccc34)n2)c1 | inconclusive: 17.8 µM [inhibitor, partial curve] | –
39 | COC(=O)c1ccc(C(=O)OC)c(NC(=O)CSCc2ccc(Br)cc2)c1 | inconclusive: 31.6 µM [inhibitor, single point] | –
40 | O=C(CSc1cccc2cccnc12)Nc1cccc(S(=O)(=O)N2CCOCC2)c1 | inconclusive: 31.6 µM [inhibitor, partial curve] | –
41 | CN(C)S(=O)(=O)c1ccc(Oc2ccccc2)cc1 | – | inactive: 1.47%
42 | N#Cc1nc(-c2ccccc2F)oc1NC1CCCCC1 | inconclusive: 31.6 µM [inhibitor, partial curve] | –
43 | Cc1ccc2c(c1)C1C=CCC1C(C(=O)O)N2 (configuration not stated) | inconclusive: 39.8 µM [inhibitor, single point] | –
44 | OCCCNc1cc(-c2ccnc(Nc3cccc(Cl)c3)n2)ccn1 | – | inactive: -25.7%
45 | NC(=O)CC[C@H](NC(=O)c1ccc(F)cc1)C(=O)OCC(=O)Nc1c(F)c(F)c(F)c(F)c1F | – | inactive: 4.5%
46 | Cc1ccc(CNc2oc(-c3cccs3)nc2C#N)cc1 | inconclusive: 31.6 µM [inhibitor, partial curve] | –
47 | Cc1ccc(CSc2nc3c(c(=O)[nH]2)C(c2ccncc2)C2=C(CCCC2=O)N3)cc1 (configuration not stated) | inconclusive: 28.2 µM [inhibitor, partial curve] | –
